Measurements reported in PubChem BioAssay (NCI).
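Step 1: Grow cells in 96-well plates. Step 2: Expose to compound for 48 hours at 5 concentrations. Step 3: Interpolate endpoints linearly; if unreached, use highest concentration. Here, GI50 denotes the concentration required for 50% inhibition of growth. TGI: concentration producing complete growth inhibition.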

System: NCI-H322M lung
Test: NCI-60 cell line screen, 48 h

SMILES | TGI [µM] | GI50 [µM]
COc1ccccc1NCC(=O)Nn1c(C)nc2ccc(S(=O)(=O)Nc3ccccc3OC)cc2c1=O | > 100 | –
O=C(Nc1cccc(C(F)(F)F)c1)c1cc(Br)cc(Br)c1O | > 10 | –
Cc1ccc2c(=O)c(-c3n[nH]c(=S)s3)c[nH]c2n1 | > 100 | –
CC(=O)OCC1OC(N2C(S)=C(C#N)C(c3ccco3)C(C(C)=O)=C2c2ccccc2)C(OC(C)=O)C(OC(C)=O)C1OC(C)=O (stereo not given) | > 100 | –
CSC1=C(C(=O)Nc2ccccc2)C(N)=NC1=O | > 100 | –
CC(=O)CC(=O)/C=C/c1cccs1 | > 100 | –
Brc1cccc[n+]1-c1ccc2cc(-[n+]3ccccc3Br)ccc2c1 | > 100 | –
Cc1ccc(NC(=O)CCC(=O)C(C#N)c2ccccc2)cc1C (stereo not given) | > 100 | –
O=C(NCCCCOCC#Cc1ccccc1C#CCS(=O)(=O)c1ccccc1)c1cc2ccccc2[nH]1 | > 50 | 18
O=C1c2ccccc2-c2c1c1ccccc1c(=O)n2-c1ccccc1 | > 100 | –
NCP(=O)(O)OCC(=O)O | > 100 | –
Cc1c(C(=O)O[C@H]2[C@@H]3[C@H](C)CC[C@H]3[C@]3(C)O[C@@]2(C2CCCCC2)C[C@H]3OC(=O)CO)ccc2ccccc12 | 15 | 7.93
COc1ccc(/C=N/N=C(\[O-])c2ccncc2)cc1F.COc1ccc(/C=N\N=C(/[O-])c2ccncc2)cc1F.[Cu+2] | 87.8 | 30.5
CC(=O)N1CCN(CCOc2ccc(C3CCN(C4=Nn5c(nnc5C(F)(F)F)CC4)CC3)cc2)CC1 | > 100 | 35.6
COCCNC1CCC2(SCCS2)c2[nH]c3ccccc3c21 (stereo not given) | > 100 | –
CCCn1c(N)c(C(=O)CNc2ccc(I)cc2)c(=O)[nH]c1=O | > 100 | > 100
CC(=O)n1ccc2c(Cl)ncnc21 | > 100 | –
O=C(CCl)Nc1cc(O)c2c(c1)C(=O)c1cccc(O)c1C2=O | 8.52 | 2.89
COc1cc(C=O)cc(C=Nc2ccc(S(N)(=O)=O)cc2)c1O | 58.9 | –
O=C1N[C@@H](COc2ccc(C=Nc3ccc(CCc4ccc(N=Cc5ccc(OC[C@@H]6COC(=O)N6)cc5)cc4)cc3)cc2)CO1 | > 100 | –
Cc1ncc([N+](=O)[O-])n1CCNC(=O)CCCCCn1ccnc1[N+](=O)[O-] | > 100 | –
OC(CN1CCCCC1)c1ccc(/C=C/c2ccc(Cl)cc2)cc1 (stereo not given) | > 100 | –
C=CCCC(=O)N1C=CC(=O)[C@H](O)[C@@H]1/C=C/c1ccccc1 | > 32.5 | 8.71
N#C/C(=C\c1ccccc1Br)C(=O)c1ccccc1 | > 100 | –

SMILES | TGI [µM] | GI50 [µM]
C1CC[N-]CC1.CC(=N\O)/C(C)=N/O.CC(=N\O)/C(C)=N/O.[CH2-]CCN1CCOCC1.[Co+2] | > 100 | > 100
CN(C)CCn1nc(N)c2nc3cc(C(F)(F)F)ccc3nc21 | > 100 | –
CN(CCO)/N=N/c1[nH]ncc1C(N)=O | > 100 | –
C=CCC(SC)C1=C(C)C(=O)c2ccccc21 (stereo not given) | > 10 | –
COc1ccc(C(=O)O/N=C2/CCC/C2=C\c2ccccc2)cc1 | > 100 | –
CCOC(=S)SCN1C(=O)c2ccccc2S1(=O)=O | 59.3 | 25.4
NC(=O)N/N=C(/c1nc2ccc([N+](=O)[O-])cc2[nH]c1=O)C(O)c1ccco1 (stereo not given) | > 100 | –
O=C1NC2(C=Cc3c(ccc4ccccc34)O2)Oc2ccccc21 (stereo not given) | > 100 | –
CN(C)CC1CCCC/C1=N/OC(=O)c1ccc(Cl)c(Cl)c1 (stereo not given) | > 100 | –
CCOC(=O)NC(=O)c1c[nH]c(=O)[nH]c1=O | > 100 | –
CCOc1cc(C(C)(C)C)ccc1C1=N[C@@](C)(c2ccc(Cl)cc2)[C@@](C)(c2ccc(Cl)cc2)N1C(=O)N1CCN(CCS(C)(=O)=O)CC1 | 17.3 | 3.98
O=c1c2c3c(sc2n2c(-c4ccc(Br)cc4)nnc2n1Cc1ccccc1)CCCC3 | 18.2 | 2.65
COc1ccc(-c2c(N)n[nH]c2-c2cc(OC)c(OC)c(OC)c2)cc1 | > 100 | –
COC[C@@H](Cc1ccc(OC)c(OC)c1)[C@@H](COC)Cc1ccc(OC)c(OC)c1 | > 100 | –
CCCCCCNC(=O)Oc1ccc(/C(=C(\C)c2ccccc2)c2ccc(OCCN(CC)CC)cc2)cc1 | 14.3 | 7.61
Cc1cc(C)c(N=Nc2c(O)c(S(=O)(=O)O)cc3cc(S(=O)(=O)O)ccc23)cc1C | > 100 | –
CCCCOc1ccc(/C=N/Nc2cc(C)nc3ccc(Cl)cc23)cc1 | 3.13 | 1.74
COc1cc(/C=N\O)nc(-c2ccccn2)c1 | > 100 | –
O=C(CC(=O)c1ccccc1)c1ccccc1 | > 100 | 16.9
COc1cccc(-c2cc(=O)c3cc(Cl)cnc3[nH]2)c1 | > 100 | –
COc1ccc(C2C(Cl)C(=O)N2NC(=O)Cc2ccccc2)cc1OC (stereo not given) | > 100 | –
CCCCCCCCCCSCC(CO)NC(=O)/C=C/c1c(C)[nH]c(=O)[nH]c1=O (stereo not given) | > 30.2 | –
O=C1C[C@H](c2ccc(O)c(O)c2)Oc2cc(O)cc(O)c21 | > 100 | –
c1ccc2nc(OCCN3CC3)ccc2c1 | 33.1 | 13.4

SMILES | TGI [µM] | GI50 [µM]
COc1ccc(N2C(=O)C3CC4=CC(=O)C[C@H]4[C@H]32)cc1 (stereo not given in full) | > 100 | –
CC(/C=N/NC1=NCCCN1)=N\NC1=NCCCN1 | > 100 | –
COc1ccc2c(c1)CC[C@@H]1[C@@H]2CC[C@]2(C)C=C(/C=C/C(=O)c3ccccc3)C[C@@H]12 | 38.7 | 18.2
C#Cc1cc2c(N)c(C(=O)c3cc(OC)c(OC)c(OC)c3)[nH]c2cc1OC | > 100 | 23.9
C1C[OH+]CC[OH+]CC[OH+]CC[OH+]CC[OH+]CC[OH+]1.[Cl-].[Nb+5] | > 100 | > 100
CN(C)CCNc1nc2ccccc2c2c(=O)c3ccccc3sc12 | 4.86 | 1.96
N=C(c1cccs1)C1(N2CCCCC2)CCCCC1 | 48.8 | –
CO[C@H](C(=O)O)[C@@H]1Cc2cc3cc(OC4CC(OC5CC(O)C(O)C(C)O5)C(O)C(C)O4)c(C)c(O)c3c(O)c2C(=O)[C@H]1OC1CC(OC2CC(OC3CC(C)(O)C(O)C(C)O3)C(O)C(C)O2)C(O)C(C)O1 (stereo not given in full) | 15.8 | 0.465
CCCCCCCCCCCCCCCCP(=O)([O-])OCC[N+](C)(C)C | 37.6 | –
N=C(N)SCCc1ccccn1 | > 100 | –
CN1CCN(CCOc2ccc(-c3cnc4c(-c5ccc(F)cc5)cnn4c3)cc2)CC1 | 3.22 | 1.66
COc1ccc2c(c1)-c1[nH]c3ccccc3c1CC2 | 34.3 | –
Oc1ccc(Cl)cc1-c1cc(-c2ccc(F)cc2)n[nH]1 | 7.28 | 2.39
COc1cc2c(cc1OC)-c1ncc3cc4c(cc3c1C2)OCO4 | > 100 | > 100
COc1cc2c(cc1OCCCCCOc1cc3c(cc1OC)C(=O)N1CCC[C@H]1CN3)N=C[C@@H]1CCCN1C2=O | 49.6 | –
CC1(C)CC[C@]2(C(=O)O)[C@H](O)C[C@]3(C)C(=CC[C@@H]4[C@@]5(C)CC[C@H](OC6OC(C(=O)O)C(O)C(O)C6O)C(C)(C)[C@@H]5CC[C@]43C)[C@@H]2C1 (stereo not given in full) | > 100 | –
OCC(O)C(OC1OC(CO)C(O)C(O)C1O)c1nn(-c2ccccc2)c2nc3cc(Cl)ccc3nc12 (stereo not given) | > 100 | –
COc1cccc(C2=C(c3cn(C)c4cccc(OC)c34)C(=O)NC2=O)c1 | > 25 | > 20.6
Cc1cc(O)c(C(C)C)cc1N=Cc1ccccc1O | 28.3 | –
Cn1cc(NC(=O)c2cc(NC(=O)CCCCCCC(=O)Nc3cc(C(=O)Nc4cc(C(=O)NCCC(=N)N)n(C)c4)n(C)c3)cn2C)cc1C(=O)NCCC(=N)N | > 100 | –
O=C(Oc1cccc(Cl)c1)c1cc2cc(CCl)ccc2oc1=O | 43.4 | –
CN(C)CCNc1nc2c(no[n+]2[O-])c2ccccc12 | 64.6 | –
O=[N+]([O-])c1cc(Cl)ccc1S(=O)(=O)N1CCCc2cc(Cl)ccc21 | > 100 | –
Cc1cc(O)cc2c1c(=O)c1ccccc1n2C | > 100 | –

SMILES | TGI [µM] | GI50 [µM]
NS(=O)(=O)c1ccc(NC(=O)COC(=O)c2cccc3c(=O)c4ccccc4[nH]c23)cc1 | 97.4 | –
Cc1ccc2c(c1)C(=O)c1c-2n(CCCN=[N+]=[N-])c(=O)c2cc([N+](=O)[O-])ccc12 | > 100 | 61.2
OC(COc1cccc2ccccc12)CN1CCN(c2ccccc2Cl)CC1 (stereo not given) | 30 | 13.5
COc1cc([C@@H]2c3cc4c(cc3C(OC3O[C@@H]5COC(C)O[C@H]5[C@H](O)[C@H]3O)C3COC(=O)[C@@H]32)OCO4)cc(OC)c1O (stereo not given in full) | > 50 | 19.9
CC1=CC(=O)/C(=C/n2c(=S)[nH]c3ccccc32)C(=O)O1 | > 100 | –
Cc1nnc(-c2ccc(-c3nc4ccccc4o3)cc2)o1 | > 100 | 30.1
ClCC#CCSc1ncnc2c1ncn2CC#CCCl | 5.02 | 2.13
O=C1OC(=O)C2C1C(c1ccccc1[N+](=O)[O-])C=C(c1ccco1)N2c1ccncc1 (stereo not given) | 29.9 | –
CCOC(=O)c1ccccc1-c1c2ccc(=[N+](C)C)cc-2oc2cc(N(C)C)ccc12 | 13.5 | 0.492
Cc1ccc(S(=O)OC23CC4CC(CC(C4)C2)C3)cc1 (stereo not given) | > 100 | –
COc1cc([C@@H]2c3cc4c(cc3C[C@H]3COC(=O)[C@@H]32)OCO4)cc2c1OCO2 | > 100 | –
N#Cc1cccc(OCc2ccccc2COc2cccc(C#N)c2)c1 | 38.8 | 13.3
CCN(CC)CCNc1ccc2ncn3c4cc(=O)ccc4c(O)c1c23 | 14.8 | –
C#CCCCC(=O)N(C(=O)CS(=O)CC)c1ccccc1 (stereo not given) | > 100 | –
CC(=O)O[C@H]1C=CC23OC(=O)[C@]1(C)[C@H]2[C@H](C(=O)O)C12CC(=O)[C@@](CO)(CC[C@H]13)C2 | > 100 | –
COC(=O)C1CC(C(=O)OC)c2nc3cc(C)c(C)cc3nc21 (stereo not given) | > 100 | –
N#Cc1c2c(c(-c3cccs3)n(C3OC(CO)C(O)C(O)C3O)c1=S)CCc1ccccc1-2 (stereo not given) | > 100 | –
COc1cc2c(c(OC)c1OC)-c1ccc(SC)cc1C(=O)CC2 | > 100 | –
COc1ccc(NC(=O)/C=C(C)/C=C/C=C(C)\C=C\C2=C(C)CCCC2(C)C)cc1 | > 100 | > 100
CC1=C(C(=O)Nc2ccccc2)C(c2ccc(C(C)C)cc2)C(C(=O)Nc2ccccc2)=C(C)N1 | > 100 | –
CCCC1(N)CC(OC)OC(C)C1O (stereo not given) | > 100 | –
C[n+]1c(N)n(C(=O)OCc2ccccc2)c(=O)c2c1ncn2C(=O)OCc1ccccc1 | > 100 | –
Cn1ncc(-c2ccc3c(=O)[nH]nc(CN)c3c2)c1-c1c(F)cc2ccccc2c1C#N | 26.4 | 7.07
Cc1sc2ncn(Cc3ccc(Cl)c(Cl)c3)c(=O)c2c1C | 46.5 | 7.88
